Experimental data from US20180326010A1 (Hoffmann-La Roche, published 2018).

Biological target: T1, human PD-1 (Programmed cell death protein 1) (human, UniProt Q15116 25-288)
T1 construct: also called hPD-1; CD279
Experiment: competitive binding assay by flow cytometry with AF647-labelled antibody on co-cultured Tconv and Treg after 5 days of CD3/CD28 stimulation; frequency bound on Tconv minus frequency bound on Treg
Experimental: The binding properties of PD1-IL2v to activated conventional and regulatory T cells were assessed in a competitive binding assay. CD4⁺ CD25⁺ CD127^dim Regulatory T cells (Treg) were isolated with the two-step Regulatory T cell Isolation Kit (Miltenyi, #130-094-775). In parallel the CD4⁺ CD25⁻ conventional T cells (Tconv) were isolated by collecting the negative fraction of a CD25 positive selection (Miltenyi, #130-092-983) followed by a CD4⁺ enrichment (Miltenyi, #130-045-101). The Tconv were labelled with CFSE (eBioscience, #65-0850-84) and the Treg were labelled with Cell Trace Violet (ThermoFisher scientific, C34557) to track the proliferation of both populations. Tconv and Treg were together seeded into a culture plate that were coated overnight at 4° C. with 1 μg/ml CD3 (clone OKT3, #317315, BioLegend). CD28 was added in solution at a concentration of 1 μg/ml CD28 (clone CD28.2, #302923, BioLegend). After 5 days of stimulation a binding assay was conducted with PD1 (0376) and PD1-IL2v (0590), which were both labelled in-house with AF647.

T1 sequence (Q15116 25-288 limits assumed): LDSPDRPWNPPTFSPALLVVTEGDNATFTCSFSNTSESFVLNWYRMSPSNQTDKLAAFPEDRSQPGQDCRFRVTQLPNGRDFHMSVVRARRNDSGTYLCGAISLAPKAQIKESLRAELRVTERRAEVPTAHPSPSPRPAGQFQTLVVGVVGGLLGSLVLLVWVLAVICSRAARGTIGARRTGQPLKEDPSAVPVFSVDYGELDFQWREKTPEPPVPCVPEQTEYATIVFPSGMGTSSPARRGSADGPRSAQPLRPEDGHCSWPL

B1: human PD1-IL-2v fusion protein (other)
heavy 1: EVQLLESGGGLVQPGGSLRLSCAASGFSFSSYTMSWVRQAPGKGLEWVATISGGGRDIYYPDSVKGRFTISRDNSKNTLYLQMNSLRAEDTAVYYCVLLTGRVYFALDSWGQGTLVTVSSASTKGPSVFPLAPSSKSTSGGTAALGCLVKDYFPEPVTVSWNSGALTSGVHTFPAVLQSSGLYSLSSVVTVPSSSLGTQTYICNVNHKPSNTKVDKKV[… human IgG1 Fc with changes …]GGGGSGGGGSGGGGSAPASSSTKKTQLQLEHLLLDLQMILNGINNYKNPKLTRMLTAKFAMPKKATELKHLQCLEEELKPLEEVLNGAQSKNFHLRPRDLISNINVIVLELKGSETTFMCEYADETATIVEFLNRWITFAQSIISTLT
heavy 2: EVQLLESGGGLVQPGGSLRLSCAASGFSFSSYTMSWVRQAPGKGLEWVATISGGGRDIYYPDSVKGRFTISRDNSKNTLYLQMNSLRAEDTAVYYCVLLTGRVYFALDSWGQGTLVTVSSASTKGPSVFPLAPSSKSTSGGTAALGCLVKDYFPEPVTVSWNSGALTSGVHTFPAVLQSSGLYSLSSVVTVPSSSLGTQTYICNVNHKPSNTKVDKKVEPKSCDKTHTCPPCPAPEAAGGPSVFLFPPKPKDTLMISRTPEVTCVVVDVSHEDPEVKFNWYVDGVEVHNAKTKPREEQYNSTYRVVSVLTVLHQDWLNGKEYKCKVSNKALGAPIEKTISKAKGQPREPQVCTLPPSRDELTKNQVSLSCAVKGFYPSDIAVEWESNGQPENNYKTTPPVLDSDGSFFLVSKLTVDKSRWQQGNVFSCSVMHEALHNRFTQKSLSLSP
light: DIVMTQSPDSLAVSLGERATINCKASESVDTSDNSFIHWYQQKPGQSPKLLIYRSSTLESGVPDRFSGSGSGTDFTLTISSLQAEDVAVYYCQQNYDVPWTFGQGTKVEIKRTVAAPSVFIFPPSDEQLKSGTASVVCLLNNFYPREAKVQWKVDNALQSGNSQESVTEQDSKDSTYSLSSTLTLSKADYEKHKVYACEVTHQGLSSPVTKSFNRGEC
notes: Immunoconjugate: IgG1 anti-human PD-1 antibody with one mutant IL-2 fused to the C-terminus of the knob heavy chain; also called PD1-IL2v (0590); PD1-IL2v bispecific antibody
Question: Does B1 bind?
Answer: binds
